According to the antibiotic and cytotoxicity screens of Wong et al. (2023):
The other results are listed elsewhere or left out.

These compounds were tested on HSkMC (human skeletal muscle cells) (assay: cytotoxicity call (relative viability < 0.9)). Settings: 10 µM.
For `Cc1noc(C)c1NC(=O)Nc1ccc2c(c1)CC(=O)N([C@@H](C)CO)C[C@@H](C)[C@@H](CN(C)C(=O)NC(C)C)O2`, the cytotoxicity call was “inactive”.
`O=C(C[C@H]1C=C[C@@H](NC(=O)CN2CCOCC2)[C@H](CO)O1)NCCc1ccccc1` was tested, and the cytotoxicity call was “inactive”.
With `C[C@@H]1CN([C@H](C)CO)S(=O)(=O)c2ccc(-c3ccc(F)cc3)cc2O[C@H]1CN(C)S(C)(=O)=O` the cytotoxicity call was “inactive”.
With `Cn1cnc(CCNC(=O)C[C@@H]2CC[C@H]3[C@@H](COC[C@H](O)CN3C(=O)Nc3ccc(C(F)(F)F)cc3)O2)c1` the cytotoxicity call was “inactive”.
`C[C@@H]1CN([C@H](C)CO)C(=O)c2cc(NS(=O)(=O)c3ccc(Cl)cc3)ccc2O[C@H]1CN(C)Cc1ccc(Oc2ccccc2)cc1` was tested, and the cytotoxicity call was “active”.
With `C[C@@H]1CN([C@@H](C)CO)C(=O)c2cccc(NS(=O)(=O)c3ccc(F)cc3)c2O[C@@H]1CN(C)C(=O)Nc1ccc(C(F)(F)F)cc1` the cytotoxicity call was “inactive”.
In the case of `O=C(O)c1cc(O)c(O)c(O)c1`, the cytotoxicity call is reported as “active”.
In the case of `C[C@H](CO)N1C[C@H](C)[C@H](CN(C)Cc2ccncc2)Oc2c(NC(=O)C3CCOCC3)cccc2C1=O`, the cytotoxicity call is reported as “inactive”.
In the case of `C[C@@H]1CN([C@H](C)CO)C(=O)c2cc(NC(=O)Nc3cccc4ccccc34)ccc2O[C@H]1CN(C)Cc1ccc(C(F)(F)F)cc1`, the cytotoxicity call is reported as “inactive”.
In the case of `O=C(C[C@@H]1CC[C@H]2[C@@H](COC[C@H](O)CN2C(=O)Nc2cccc(Cl)c2)O1)NCc1ccccc1F`, the cytotoxicity call is reported as “inactive”.
`C[C@@H]1CN([C@@H](C)CO)C(=O)Cc2cc(NS(=O)(=O)c3ccc(F)cc3)ccc2O[C@H]1CN(C)S(=O)(=O)c1cccs1` was tested, and the cytotoxicity call was “inactive”.
`CC(C)NC(=O)N(C)C[C@H]1Oc2ccc(NS(=O)(=O)c3cn(C)cn3)cc2CC(=O)N([C@@H](C)CO)C[C@@H]1C` was tested, and the cytotoxicity call was “inactive”.
`C[C@H](CO)N1C[C@H](C)[C@H](CN(C)Cc2ccncc2)Oc2ccc(NS(=O)(=O)c3ccc(F)cc3)cc2CC1=O` was tested, and the cytotoxicity call was “inactive”.
With `C[C@H](CO)N1C[C@H](C)[C@H](CN(C)Cc2ccccc2)OCCCC[C@H](C)Oc2ccc(NC(=O)c3ccccc3)cc2C1=O` the cytotoxicity call was “inactive”.
With `COc1ccc(S(=O)(=O)Nc2ccc3c(c2)C(=O)N([C@@H](C)CO)C[C@H](C)[C@@H](CN(C)C(=O)Nc2ccccc2)OCCCC[C@@H](C)O3)cc1` the cytotoxicity call was “inactive”.
`C[C@@H]1CN([C@H](C)CO)C(=O)c2cc(NC(=O)Cc3cn(C)c4ccccc34)ccc2O[C@H]1CN(C)Cc1ccc(C(F)(F)F)cc1` was tested, and the cytotoxicity call was “inactive”.
In the case of `C[C@H](CO)N1C[C@H](C)[C@@H](CN(C)S(=O)(=O)c2ccccc2)Oc2ccc(NC(=O)CCCN(C)C)cc2CC1=O`, the cytotoxicity call is reported as “inactive”.
`Cc1ccc(S(=O)(=O)N(C)C[C@@H]2OCCCC[C@H](C)Oc3ccc(NC(=O)C4CCCCC4)cc3C(=O)N([C@@H](C)CO)C[C@H]2C)cc1` was tested, and the cytotoxicity call was “inactive”.
With `C[C@@H]1CN([C@H](C)CO)C(=O)c2cc(NS(C)(=O)=O)ccc2O[C@@H](C)CCCCO[C@@H]1CN(C)Cc1ccc(C(F)(F)F)cc1` the cytotoxicity call was “inactive”.
With `CC(C)NC(=O)Nc1ccc2c(c1)CC(=O)N([C@H](C)CO)C[C@H](C)[C@@H](CN(C)Cc1ccc(C(=O)O)cc1)O2` the cytotoxicity call was “inactive”.
`Cc1ccc(S(=O)(=O)N(C)C[C@@H]2OCCCC[C@H](C)Oc3ccc(NC(=O)Nc4ccc(F)cc4)cc3C(=O)N([C@@H](C)CO)C[C@H]2C)cc1` was tested, and the cytotoxicity call was “inactive”.
With `Cc1ccc(S(=O)(=O)N(C)C[C@@H]2OCCCC[C@H](C)Oc3ccc(NC(=O)c4ccccc4)cc3C(=O)N([C@H](C)CO)C[C@@H]2C)cc1` the cytotoxicity call was “inactive”.
With `C[C@H]1CN([C@@H](C)CO)C(=O)c2cc(NC(=O)Nc3cccc4ccccc34)ccc2O[C@@H]1CN(C)S(=O)(=O)c1cccs1` the cytotoxicity call was “inactive”.
`COCC(=O)N1C[C@H](C)[C@@H](OC)CN(C)C(=O)c2cc(NC(=O)c3ccc(OC)cc3)ccc2OC[C@@H]1C` was tested, and the cytotoxicity call was “inactive”.
With `COc1ccc(NC(=O)Nc2ccc3c(c2)C(=O)N([C@H](C)CO)C[C@@H](C)[C@H](CN(C)CC2CC2)OCCCC[C@@H](C)O3)cc1` the cytotoxicity call was “inactive”.
`COc1ccc(S(=O)(=O)N(C)C[C@H]2OCCCC[C@H](C)Oc3ccc(NC(=O)Nc4cccc5ccccc45)cc3C(=O)N([C@@H](C)CO)C[C@@H]2C)cc1` was tested, and the cytotoxicity call was “inactive”.
With `COc1ccc(S(=O)(=O)N(C)C[C@@H]2Oc3ncc(C#Cc4cccc(F)c4)cc3C(=O)N([C@H](C)CO)C[C@@H]2C)cc1` the cytotoxicity call was “inactive”.
With `CC(C)NCC(O)COc1ccc(CC(N)=O)cc1` (stereo not drawn) the cytotoxicity call was “inactive”.
